# Measurements reported in the supplement of paper PMC8728848.
# Some of the results follow.
# B1: RNase 1 (Bos taurus), P61823 (protein)
# chain: MALKSLVLLSLLVLVLLLVRVQPSLGKETAAAKFERQHMDSSTSAASSSNYCNQMMKSRNLTKDRCKPVNTFVHESLADVQAVCSQKNVACKNGQTNCYQSYSTMSITDCRETGSSKYPNCAYKTTQANKHIIVACEGNPYVPVHFDASV
# How the values were obtained:
# Assay in all cases: glycan array binding signal (z-score within array); higher = stronger binding
# Conditions in all cases: glycan notation: IUPAC condensed, linker removed
# [1] = target: Neu5Ac(a2-3)Gal(b1-3)GalNAc(b1-3)Gal(a1-4)Gal(b1-4)Glc
# Outline: (§1)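 Columns mapping to the same glycan were averaged after glycan names were converted to IUPAC-condensed notation. The data come from 3228 arrays in the Consortium for Functional Glycomics database, limited to those with an available protein sequence. Binding is reported as a within-array Z-score averaged across arrays of one protein sequence and across linkers.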
# [2] = target: Neu5Ac(a2-3)Gal(b1-3)GalNAc(b1-4)[Neu5Ac(a2-3)]Gal(b1-4)Glc
# Outline: as §1
# [3] = target: Neu5Ac(a2-3)Gal(b1-3)GalNAc6S
# Outline: as §1
# [4] = target: Neu5Ac(a2-3)Gal(b1-3)GlcNAc
# Outline: as §1
# [5] = target: Neu5Ac(a2-3)Gal(b1-3)GlcNAc(b1-3)Gal(b1-4)GlcNAc
# Outline: as §1
# [6] = target: Neu5Ac(a2-3)Gal(b1-3)GlcNAc6S
# Outline: as §1
# [7] = target: Neu5Ac(a2-3)Gal(b1-3)[Fuc(a1-4)]GlcNAc
# Outline: as §1
# [8] = target: Neu5Ac(a2-3)Gal(b1-3)[Fuc(a1-4)]GlcNAc(b1-3)Gal(b1-4)[Fuc(a1-3)]GlcNAc
# Outline: as §1
# [9] = target: Neu5Ac(a2-3)Gal(b1-3)[Neu5Ac(a2-3)Gal(b1-4)]GlcNAc
# Outline: as §1
# [10] = target: Neu5Ac(a2-3)Gal(b1-3)[Neu5Ac(a2-6)]GalNAc
# Outline: as §1
# [11] = target: Neu5Ac(a2-3)Gal(b1-4)Glc
# Outline: as §1
# [12] = target: Neu5Ac(a2-3)Gal(b1-4)GlcNAc
# Outline: as §1
# [13] = target: Neu5Ac(a2-3)Gal(b1-4)GlcNAc(b1-3)Gal(b1-4)GlcNAc
# Outline: as §1
# [14] = target: Neu5Ac(a2-3)Gal(b1-4)GlcNAc(b1-3)Gal(b1-4)GlcNAc(b1-3)Gal(b1-4)GlcNAc
# Outline: as §1
# [15] = target: Neu5Ac(a2-3)Gal(b1-4)GlcNAc(b1-3)Gal(b1-4)[Fuc(a1-3)]GlcNAc
# Outline: as §1
# [16] = target: Neu5Ac(a2-3)Gal(b1-4)GlcNAc6S
# Outline: as §1
# [17] = target: Neu5Ac(a2-3)Gal(b1-4)[Fuc(a1-3)]GlcNAc
# Outline: as §1
# [18] = target: Neu5Ac(a2-3)Gal(b1-4)[Fuc(a1-3)]GlcNAc(b1-3)Gal
# Outline: as §1
# [19] = target: Neu5Ac(a2-3)Gal(b1-4)[Fuc(a1-3)]GlcNAc(b1-3)Gal(b1-4)GlcNAc
# Outline: as §1
# [20] = target: Neu5Ac(a2-3)Gal(b1-4)[Fuc(a1-3)]GlcNAc(b1-3)Gal(b1-4)[Fuc(a1-3)]GlcNAc(b1-3)Gal(b1-4)[Fuc(a1-3)]GlcNAc
# Outline: as §1
# [21] = target: Neu5Ac(a2-3)Gal(b1-4)[Fuc(a1-3)]GlcNAc6S
# Outline: as §1
# [22] = target: Neu5Ac(a2-3)Gal6S(b1-4)GlcNAc
# Outline: as §1
# [23] = target: Neu5Ac(a2-3)Gal6S(b1-4)[Fuc(a1-3)]GlcNAc
# Outline: as §1
# [24] = target: Neu5Ac(a2-3)GalNAc
# Outline: as §1
# [25] = target: Neu5Ac(a2-3)GalNAc(b1-4)GlcNAc
# Outline: as §1
# [26] = target: Neu5Ac(a2-3)[GalNAc(b1-4)]Gal(b1-4)Glc
# Outline: as §1
# [27] = target: Neu5Ac(a2-3)[GalNAc(b1-4)]Gal(b1-4)GlcNAc
# Outline: as §1
# [28] = target: Neu5Ac(a2-3)[Neu5Ac(a2-6)]GalNAc
# Outline: as §1
# [29] = target: Neu5Ac(a2-6)Gal(b1-4)GlcNAc
# Outline: as §1
# [30] = target: Neu5Ac(a2-6)Gal(b1-4)GlcNAc(b1-2)Man(a1-3)[Neu5Ac(a2-6)Gal(b1-4)GlcNAc(b1-2)Man(a1-6)]Man(b1-4)GlcNAc(b1-4)GlcNAc
# Outline: as §1
# [31] = target: Neu5Ac(a2-6)Gal(b1-4)GlcNAc(b1-3)Gal(b1-4)GlcNAc
# Outline: as §1
# [32] = target: Neu5Ac(a2-6)Gal(b1-4)GlcNAc(b1-3)Gal(b1-4)[Fuc(a1-3)]GlcNAc(b1-3)Gal(b1-4)[Fuc(a1-3)]GlcNAc
# Outline: as §1
# [33] = target: Neu5Ac(a2-6)Gal(b1-4)GlcNAc6S
# Outline: as §1
# [34] = target: Neu5Ac(a2-6)GalNAc
# Outline: as §1
# [35] = target: Neu5Ac(a2-6)GalNAc(b1-4)GlcNAc
# Outline: as §1
# [36] = target: Neu5Ac(a2-8)Neu5Ac
# Outline: as §1
# [37] = target: Neu5Ac(a2-8)Neu5Ac(a2-3)Gal(b1-4)Glc
# Outline: as §1
# [38] = target: Neu5Ac(a2-8)Neu5Ac(a2-3)[GalNAc(b1-4)]Gal(b1-4)Glc
# Outline: as §1
# [39] = target: Neu5Ac(a2-8)Neu5Ac(a2-8)Neu5Ac
# Outline: as §1
# [40] = target: Neu5Ac(a2-8)Neu5Ac(a2-8)Neu5Ac(a2-3)Gal(b1-4)Glc
# Outline: as §1
# [41] = target: Neu5Ac(a2-8)Neu5Ac(a2-8)Neu5Ac(a2-3)[GalNAc(b1-4)]Gal(b1-4)Glc
# Outline: as §1
# [42] = target: Neu5Ac(a2-8)Neu5Ac(a2-8)Neu5Ac(a2-8)Neu5Ac(a2-3)[GalNAc(b1-4)]Gal(b1-4)Glc
# Outline: as §1
# [43] = target: Neu5Ac9Ac(a2-6)Gal(b1-4)GlcNAc
# Outline: as §1
# [44] = target: Neu5Gc(a2-3)Gal(b1-3)GlcNAc
# Outline: as §1
# [45] = target: Neu5Gc(a2-3)Gal(b1-3)[Fuc(a1-4)]GlcNAc
# Outline: as §1
# [46] = target: Neu5Gc(a2-3)Gal(b1-4)Glc
# Outline: as §1
# [47] = target: Neu5Gc(a2-3)Gal(b1-4)GlcNAc
# Outline: as §1
# [48] = target: Neu5Gc(a2-3)Gal(b1-4)[Fuc(a1-4)]GlcNAc
# Outline: as §1
# [49] = target: Neu5Gc(a2-6)Gal(b1-4)GlcNAc
# Outline: as §1
# [50] = target: Neu5Gc(a2-6)GalNAc
# Outline: as §1
binder,measurement,setting,value
B1,glycan array binding signal (z-score),[1],0.615
same,glycan array binding signal (z-score),[2],-0.179
same,glycan array binding signal (z-score),[3],-0.195
same,glycan array binding signal (z-score),[4],-0.174
same,glycan array binding signal (z-score),[5],-0.164
same,glycan array binding signal (z-score),[6],-0.204
same,glycan array binding signal (z-score),[7],-0.235
same,glycan array binding signal (z-score),[8],0.048
same,glycan array binding signal (z-score),[9],0.146
same,glycan array binding signal (z-score),[10],-0.21
same,glycan array binding signal (z-score),[11],-0.225
same,glycan array binding signal (z-score),[12],-0.203
same,glycan array binding signal (z-score),[13],-0.24
same,glycan array binding signal (z-score),[14],-0.186
same,glycan array binding signal (z-score),[15],-0.22
same,glycan array binding signal (z-score),[16],-0.133
same,glycan array binding signal (z-score),[17],-0.223
same,glycan array binding signal (z-score),[18],-0.22
same,glycan array binding signal (z-score),[19],0.086
same,glycan array binding signal (z-score),[20],-0.187
same,glycan array binding signal (z-score),[21],-0.234
same,glycan array binding signal (z-score),[22],-0.171
same,glycan array binding signal (z-score),[23],-0.207
same,glycan array binding signal (z-score),[24],-0.24
same,glycan array binding signal (z-score),[25],-0.237
same,glycan array binding signal (z-score),[26],-0.237
same,glycan array binding signal (z-score),[27],-0.14
same,glycan array binding signal (z-score),[28],-0.21
same,glycan array binding signal (z-score),[29],-0.188
same,glycan array binding signal (z-score),[30],-0.13
same,glycan array binding signal (z-score),[31],-0.25
same,glycan array binding signal (z-score),[32],-0.214
same,glycan array binding signal (z-score),[33],-0.212
same,glycan array binding signal (z-score),[34],-0.216
same,glycan array binding signal (z-score),[35],-0.214
same,glycan array binding signal (z-score),[36],-0.22
same,glycan array binding signal (z-score),[37],-0.202
same,glycan array binding signal (z-score),[38],-0.226
same,glycan array binding signal (z-score),[39],-0.221
same,glycan array binding signal (z-score),[40],-0.206
same,glycan array binding signal (z-score),[41],-0.187
same,glycan array binding signal (z-score),[42],-0.221
same,glycan array binding signal (z-score),[43],0.183
same,glycan array binding signal (z-score),[44],-0.222
same,glycan array binding signal (z-score),[45],-0.233
same,glycan array binding signal (z-score),[46],-0.134
same,glycan array binding signal (z-score),[47],-0.226
same,glycan array binding signal (z-score),[48],-0.221
same,glycan array binding signal (z-score),[49],-0.201
same,glycan array binding signal (z-score),[50],-0.197
